Test results: the supplement of paper PMC10369915
This is one part of the list. Cut-off read from the data, not from the text of the source: active = 3.2 or more and inactive = the rest. Only a few entries rise above the background.

What follows are binders tested against SHP2 C-SH2 domain E139D (assay: enrichment score (SH2-bound / input frequency) (ratio); bacterial display of known human phosphotyrosine sites (pTyr-Var adds point mutants) read by sequencing; higher = stronger binding; tyrosines were phosphorylated by kinases first). Conditions: peptide library: pTyr-Var.
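Note: displayed peptides selected on beads carrying the immobilized SH2 domain, with library peptides lacking any tyrosine serving as negative controls.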

Enrichment score, inactive:
KSLSQYLEMDK [CAGE1_Y438_V435L] 1.03, QGLRLYRAHLA [BTK_Y617_P619A] 2.4, KDGIGYISAAE [CALM2_Y100_N98I] 0.733, REAMEYLESKQ [BTK_Y511_C506R] 0.621, MRTMGYMPREM [CABP5_Y62_T65R] 0.895, KDGSGYISAAE [CALM1_Y100_N98S] 0.554, IVAREYYSEAD [CAMK2A_Y106] 0.726, CEDMEYLESKQ [BTK_Y511_A508D] 0.774, QGLRLYRPHLP [BTK_Y617_A622P] 1.14, SREALYNEMDP [CACNA1A_Y794] 0.998, CEAMEYLESKQ [BTK_Y511] 1.12, KWRGQYDVAIK [BTK_Y425] 1.47, KLSCSYSHWSA [C4BPA_Y470] 1.21, NKYTTYLPWLP [C9orf24_Y126_R129W] 1.11, ETDSEYVKLAK [C7orf57_Y70] 0.406, KLVQLYDVCTK [BTK_Y461_G462D] 1.02, GNKENYGLPQP [BUB1_Y538] 0.636, FNSLLYQVPTS [CALCOCO2_Y358_P357L] 1.4, KSVSQYLEMDK [CAGE1_Y438] 0.83

These binders were tested against SHP2 C-SH2 domain wild-type in the same assay as above. Conditions: peptide library: pTyr-Var.

Enrichment score, inactive:
KSLSQYLEMDK [CAGE1_Y438_V435L] 0.644, QGLRLYRAHLA [BTK_Y617_P619A] 1.93, KDGIGYISAAE [CALM2_Y100_N98I] 0.488, REAMEYLESKQ [BTK_Y511_C506R] 0.534, MRTMGYMPREM [CABP5_Y62_T65R] 0.856, KDGSGYISAAE [CALM1_Y100_N98S] 0.448, IVAREYYSEAD [CAMK2A_Y106] 0.713, CEDMEYLESKQ [BTK_Y511_A508D] 1.01, QGLRLYRPHLP [BTK_Y617_A622P] 0.716, SREALYNEMDP [CACNA1A_Y794] 0.829, CEAMEYLESKQ [BTK_Y511] 1.23, KWRGQYDVAIK [BTK_Y425] 1.28, KLSCSYSHWSA [C4BPA_Y470] 1.25, NKYTTYLPWLP [C9orf24_Y126_R129W] 1.57, ETDSEYVKLAK [C7orf57_Y70] 0.534, KLVQLYDVCTK [BTK_Y461_G462D] 0.979, GNKENYGLPQP [BUB1_Y538] 0.639, FNSLLYQVPTS [CALCOCO2_Y358_P357L] 1.17, KSVSQYLEMDK [CAGE1_Y438] 0.956

The binders below were run against SHP2 N-SH2 domain L43F in the same assay as above. Conditions: peptide library: pTyr-Var.

Enrichment score, inactive:
KSLSQYLEMDK [CAGE1_Y438_V435L] 0.931, QGLRLYRAHLA [BTK_Y617_P619A] 2.44, KDGIGYISAAE [CALM2_Y100_N98I] 0.543, REAMEYLESKQ [BTK_Y511_C506R] 0.699, MRTMGYMPREM [CABP5_Y62_T65R] 0.809, KDGSGYISAAE [CALM1_Y100_N98S] 0.559, IVAREYYSEAD [CAMK2A_Y106] 0.72, CEDMEYLESKQ [BTK_Y511_A508D] 0.954, QGLRLYRPHLP [BTK_Y617_A622P] 1.37, SREALYNEMDP [CACNA1A_Y794] 1.07, CEAMEYLESKQ [BTK_Y511] 1.04, KWRGQYDVAIK [BTK_Y425] 1.29, KLSCSYSHWSA [C4BPA_Y470] 1.03, NKYTTYLPWLP [C9orf24_Y126_R129W] 1.29, ETDSEYVKLAK [C7orf57_Y70] 0.521, KLVQLYDVCTK [BTK_Y461_G462D] 0.959, GNKENYGLPQP [BUB1_Y538] 0.541, FNSLLYQVPTS [CALCOCO2_Y358_P357L] 1.19, KSVSQYLEMDK [CAGE1_Y438] 0.972

Each binder was assayed against SHP2 N-SH2 domain T42A in the same assay as above. Conditions: peptide library: pTyr-Var.

Enrichment score, inactive:
KSLSQYLEMDK [CAGE1_Y438_V435L] 1.76, QGLRLYRAHLA [BTK_Y617_P619A] 2.5, KDGIGYISAAE [CALM2_Y100_N98I] 0.596, REAMEYLESKQ [BTK_Y511_C506R] 0.767, MRTMGYMPREM [CABP5_Y62_T65R] 0.777, KDGSGYISAAE [CALM1_Y100_N98S] 0.533, IVAREYYSEAD [CAMK2A_Y106] 0.639, CEDMEYLESKQ [BTK_Y511_A508D] 0.564, QGLRLYRPHLP [BTK_Y617_A622P] 0.617, SREALYNEMDP [CACNA1A_Y794] 0.821, CEAMEYLESKQ [BTK_Y511] 0.735, KWRGQYDVAIK [BTK_Y425] 1.24, KLSCSYSHWSA [C4BPA_Y470] 1.18, NKYTTYLPWLP [C9orf24_Y126_R129W] 1.2, ETDSEYVKLAK [C7orf57_Y70] 0.432, KLVQLYDVCTK [BTK_Y461_G462D] 0.982, GNKENYGLPQP [BUB1_Y538] 0.548, FNSLLYQVPTS [CALCOCO2_Y358_P357L] 1.54, KSVSQYLEMDK [CAGE1_Y438] 1.99

Each binder was assayed against SHP2 N-SH2 domain T52S in the same assay as above. Conditions: peptide library: pTyr-Var.

Enrichment score, inactive:
KSLSQYLEMDK [CAGE1_Y438_V435L] 0.893, QGLRLYRAHLA [BTK_Y617_P619A] 2.77, KDGIGYISAAE [CALM2_Y100_N98I] 0.513, REAMEYLESKQ [BTK_Y511_C506R] 0.664, MRTMGYMPREM [CABP5_Y62_T65R] 0.867, KDGSGYISAAE [CALM1_Y100_N98S] 0.647, IVAREYYSEAD [CAMK2A_Y106] 0.773, CEDMEYLESKQ [BTK_Y511_A508D] 0.632, QGLRLYRPHLP [BTK_Y617_A622P] 0.684, SREALYNEMDP [CACNA1A_Y794] 0.984, CEAMEYLESKQ [BTK_Y511] 0.826, KWRGQYDVAIK [BTK_Y425] 1.3, KLSCSYSHWSA [C4BPA_Y470] 0.95, NKYTTYLPWLP [C9orf24_Y126_R129W] 1.35, ETDSEYVKLAK [C7orf57_Y70] 0.401, KLVQLYDVCTK [BTK_Y461_G462D] 1.08, GNKENYGLPQP [BUB1_Y538] 0.538, FNSLLYQVPTS [CALCOCO2_Y358_P357L] 1.32, KSVSQYLEMDK [CAGE1_Y438] 0.821

What follows are binders tested against SHP2 N-SH2 domain wild-type in the same assay as above. Conditions: peptide library: pTyr-Var.

Enrichment score, inactive:
KSLSQYLEMDK [CAGE1_Y438_V435L] 1.16, QGLRLYRAHLA [BTK_Y617_P619A] 2.09, KDGIGYISAAE [CALM2_Y100_N98I] 0.544, REAMEYLESKQ [BTK_Y511_C506R] 1.2, MRTMGYMPREM [CABP5_Y62_T65R] 0.897, KDGSGYISAAE [CALM1_Y100_N98S] 0.752, IVAREYYSEAD [CAMK2A_Y106] 0.752, CEDMEYLESKQ [BTK_Y511_A508D] 0.879, QGLRLYRPHLP [BTK_Y617_A622P] 0.922, SREALYNEMDP [CACNA1A_Y794] 1.07, CEAMEYLESKQ [BTK_Y511] 1.63, KWRGQYDVAIK [BTK_Y425] 1.26, KLSCSYSHWSA [C4BPA_Y470] 1.32, NKYTTYLPWLP [C9orf24_Y126_R129W] 1.03, ETDSEYVKLAK [C7orf57_Y70] 0.45, KLVQLYDVCTK [BTK_Y461_G462D] 1.02, GNKENYGLPQP [BUB1_Y538] 0.69, FNSLLYQVPTS [CALCOCO2_Y358_P357L] 1.37, KSVSQYLEMDK [CAGE1_Y438] 0.818
